# Some of the results follow.
# B1: PhoQ; a variant is named by its letters at X, in order, P23837 (parent)
# chain: MKKLLRLFFPLSLRVRFLLATAAVVLVLSLAYGMVALIGYSVSFDKTTFRLLRGESNLFYTLAKWENNKLHVELPENIDKQSPTMTLIYDENGQLLWAQRDVPWLMKMIQPDWLKSNGFHEIEADVNDTSLLLSGDHSIQQQLQEVREDDDDAEMTHSVAVNVYPATSRMPKLTIVVVDTIPVELKSSYMVWSWFIYVLSANLLLVIPLLWVAAWWSLRPIEALAKEVRELEEHNRELLNPATTRELTSLVRNLNRLLKSERERYDKYRTTLTDLTHSLKTPLXXLQXXLRSLRSEKMSVSDAEPVMLEQISRISQQIGYYLHRASMRGGTLLSRELHPVAPLLDNLTSALNKVYQRKGVNISLDISPEISFVGEQNDFVEVMGNVLDNACKYCLEFVEISARQTDEHLYIVVEDDGPGIPLSKREVIFDRGQRVDTLRPGQGVGLAVAREITEQYEGKIVAGESMLGGARMEVIFGRQHSAPKDE
# Variants of: B1
# Experiment: enrichment ratio after two sorts for PhoP signalling (ratio (wild type AVST 3.29)); higher = more functional
# Settings: with PhoP (E. coli)
row,Variant,enrichment ratio
1,KSAN,≤ 0.25
2,DFEM,≤ 0.25
3,IQSP,≤ 0.25
4,YTGC,≤ 0.25
5,IDHW,≤ 0.25
6,STYV,≤ 0.25
7,HLFG,≤ 0.25
8,LHPC,≤ 0.25
9,STTW,2.13
10,WLNW,≤ 0.25
11,KSQG,≤ 0.25
12,ITNV,≤ 0.25
13,RNTR,≤ 0.25
14,FPNM,≤ 0.25
15,DCFK,≤ 0.25
16,TDDR,≤ 0.25
17,MVIR,≤ 0.25
18,RMES,≤ 0.25
19,MVCQ,≤ 0.25
20,YRTT,≤ 0.25
21,ADGQ,≤ 0.25
22,SCLC,12.4
23,FPAE,≤ 0.25
24,VTAL,3.44
25,SEKG,≤ 0.25
26,TQLS,17.6

row,Variant,enrichment ratio
1,DKKW,≤ 0.25
2,TSWL,9.64
3,RHSS,≤ 0.25
4,PQLF,≤ 0.25
5,QRVC,≤ 0.25
6,QSRF,≤ 0.25
7,MQHR,≤ 0.25
8,EKIG,≤ 0.25
9,FNFQ,≤ 0.25
10,FPKW,≤ 0.25
11,RRFL,≤ 0.25
12,AAPS,≤ 0.25
13,WSCF,≤ 0.25
14,TDCF,5.11
15,VHVH,≤ 0.25
16,LCVK,≤ 0.25
17,IADV,≤ 0.25
18,NYNC,≤ 0.25
19,GNWY,≤ 0.25
20,DTFT,≤ 0.25
21,TGWT,10.5
22,NCHH,≤ 0.25
23,PQRC,≤ 0.25
24,EFDG,≤ 0.25
25,AVQS,≤ 0.25
26,IQCW,≤ 0.25

row,Variant,enrichment ratio
1,GVMN,≤ 0.25
2,TVPY,≤ 0.25
3,AHVF,≤ 0.25
4,FSKS,≤ 0.25
5,ALPC,≤ 0.25
6,LVTC,≤ 0.25
7,AGSF,9.77
8,NPDW,≤ 0.25
9,KAQF,≤ 0.25
10,WMNC,≤ 0.25
11,PRKI,≤ 0.25
12,HHDH,≤ 0.25
13,QMNQ,8.17
14,QGYL,9.62
15,INLS,1.62
16,HSPM,≤ 0.25
17,MKVP,≤ 0.25
18,LCCH,≤ 0.25
19,GGLI,11.9
20,EQTN,≤ 0.25
21,VNQS,≤ 0.25
22,NQFQ,≤ 0.25
23,HTLS,≤ 0.25
24,TEFG,19
25,HSAD,≤ 0.25
26,RWPQ,≤ 0.25

row,Variant,enrichment ratio
1,YKPW,1.28
2,APSD,≤ 0.25
3,GFGA,≤ 0.25
4,YWMD,≤ 0.25
5,NELM,≤ 0.25
6,YYTE,≤ 0.25
7,HWFE,≤ 0.25
8,RRWF,≤ 0.25
9,IWYF,≤ 0.25
10,YCGH,≤ 0.25
11,VPMQ,≤ 0.25
12,ELTN,≤ 0.25
13,IFNQ,≤ 0.25
14,WECS,≤ 0.25
15,SKLK,≤ 0.25
16,LGQW,≤ 0.25
17,SSRT,≤ 0.25
18,VMHM,≤ 0.25
19,ALIW,≤ 0.25
20,FYMW,≤ 0.25
21,EMVT,≤ 0.25
22,FCCC,≤ 0.25
23,DTQC,≤ 0.25
24,HPYW,≤ 0.25
25,QDPF,≤ 0.25
26,NIYV,≤ 0.25

row,Variant,enrichment ratio
1,MYFA,≤ 0.25
2,MTYT,≤ 0.25
3,SEAY,5.88
4,MELE,≤ 0.25
5,ECNW,≤ 0.25
6,DGWD,≤ 0.25
7,KMNF,≤ 0.25
8,REIH,1.52
9,CMVF,≤ 0.25
10,WRPD,≤ 0.25
11,PWHP,≤ 0.25
12,LADL,≤ 0.25
13,NDFN,≤ 0.25
14,LINQ,≤ 0.25
15,IYTM,≤ 0.25
16,RLNF,≤ 0.25
17,KRPN,≤ 0.25
18,TAIK,≤ 0.25
19,HSTA,≤ 0.25
20,FIFT,≤ 0.25
21,ETDI,≤ 0.25
22,FNSL,≤ 0.25
23,MTLM,13.8
24,RPAE,≤ 0.25
25,PWKN,≤ 0.25
26,EEMP,≤ 0.25

row,Variant,enrichment ratio
1,EKIW,≤ 0.25
2,MDQN,≤ 0.25
3,GELC,8.26
4,WMFL,≤ 0.25
5,YHLG,≤ 0.25
6,MFPA,≤ 0.25
7,LRKE,≤ 0.25
8,FVAA,≤ 0.25
9,LWPN,≤ 0.25
10,RHRT,≤ 0.25
11,TGVQ,7.73
12,DKAP,≤ 0.25
13,WGHI,≤ 0.25
14,MLCF,1.33
15,HEDF,≤ 0.25
16,YYIP,≤ 0.25
17,RGIR,≤ 0.25
18,NEDE,≤ 0.25
19,VRPP,≤ 0.25
20,FAPF,≤ 0.25
21,FYQK,≤ 0.25
22,PYKY,≤ 0.25
23,AFIT,≤ 0.25
